This is one part of the list. Single values are uncertain, as repeats are few or missing.
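Further: cell number obtained by counting DAPI-stained nuclei in high-throughput microscope images with image analysis software, screen run in 1,536-well plates.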

The experiment deals with SkMel5. Put plainly: cell count relative to DMSO control; melanoma cells; higher = more viable cells. The following applies: library dose: low library concentration; 72 h.
For the compound `O=C1NC(=O)/C(=C/c2ccc(-c3ccc(F)cc3O)o2)S1` + O=C(Oc1ccc([N+](=O)[O-])cc1)N1CCC(C(O)(c2ccc3c(c2)OCO3)c2ccc3c(c2)OCO3)CC1 [JZL184] (first compound 1 µM, partner dose 1 µM), the cell count is 95.5%.

`CN1CCN(c2ccc3nc(-c4c(N)c5c(F)cccc5[nH]c4=O)[nH]c3c2)CC1` [Dovitinib] + C/C(O)=C(\C#N)C(=O)Nc1cc(Br)ccc1Br [LFM-A13] (first compound 0.1 µM, partner dose 2 µM): the cell count was found to be 104%.

As for `O=C(O)c1ccc2c(c1)nc(Nc1cccc(Cl)c1)c1ccncc12` + Cc1cc(SCc2sc(-c3ccc(C(F)(F)F)c(F)c3)nc2C)ccc1OCC(=O)O [GW0742] (first compound 0.4 µM, partner dose 2 µM), the cell count is 116%.

In turn, `CN1CCN(c2ccc3nc(-c4c(N)c5c(F)cccc5[nH]c4=O)[nH]c3c2)CC1` [Dovitinib] + O=C(Oc1ccc([N+](=O)[O-])cc1)N1CCC(C(O)(c2ccc3c(c2)OCO3)c2ccc3c(c2)OCO3)CC1 [JZL184] (first compound 0.1 µM, partner dose 1 µM) yielded a cell count of 75.8%.

Take `Clc1ccc(Nc2nnc(Cc3ccncc3)c3ccccc23)cc1` [vatalanib] + C/C(O)=C(\C#N)C(=O)Nc1cc(Br)ccc1Br [LFM-A13] (first compound 2 µM, partner dose 2 µM): the cell count amounted to 90.8%.

`Cc1cc([N+](=O)[O-])ccc1NS(=O)(=O)c1cc(Cl)ccc1Cl` + O=C(Oc1ccc([N+](=O)[O-])cc1)N1CCC(C(O)(c2ccc3c(c2)OCO3)c2ccc3c(c2)OCO3)CC1 [JZL184] (first compound 1 µM, partner dose 1 µM): the cell count worked out at 71.5%.

Compound `Cc1cc(Nc2cc(N3CCN(C)CC3)nc(Sc3ccc(NC(=O)C4CC4)cc3)n2)n[nH]1` [Tozasertib] + O=C(Oc1ccc([N+](=O)[O-])cc1)N1CCC(C(O)(c2ccc3c(c2)OCO3)c2ccc3c(c2)OCO3)CC1 [JZL184] (first compound 0.006 µM, partner dose 1 µM) registered a cell count of 94.2%.

`Oc1cc(-c2nc(-c3ccccc3)[nH]c2-c2ccncc2)ccc1Cl` + C/C(O)=C(\C#N)C(=O)Nc1cc(Br)ccc1Br [LFM-A13] (first compound 0.2 µM, partner dose 2 µM) gave a cell count of 96.1%.

Regarding `O=C(O)C(=O)Nc1sc2c(c1C(=O)O)CCNC2` + O=C(Oc1ccc([N+](=O)[O-])cc1)N1CCC(C(O)(c2ccc3c(c2)OCO3)c2ccc3c(c2)OCO3)CC1 [JZL184] (first compound 1.66667 µM, partner dose 1 µM), the cell count was determined as 81.1%.

Regarding `Clc1ccc(Nc2nnc(Cc3ccncc3)c3ccccc23)cc1` [vatalanib] + O=C(Oc1ccc([N+](=O)[O-])cc1)N1CCC(C(O)(c2ccc3c(c2)OCO3)c2ccc3c(c2)OCO3)CC1 [JZL184] (first compound 2 µM, partner dose 1 µM), the cell count worked out at 71.4%.

For the compound `COc1cc2ncnc(Nc3ccc(Oc4ccccc4)cc3)c2cc1OC` + O=C(Oc1ccc([N+](=O)[O-])cc1)N1CCC(C(O)(c2ccc3c(c2)OCO3)c2ccc3c(c2)OCO3)CC1 [JZL184] (first compound 2 µM, partner dose 1 µM), the cell count stood at 94.6%.

`CC(C)C[C@H](NC(=O)[C@H](Cc1ccccc1)NC(=O)c1cnccn1)B(O)O` [Bortezomib] + O=C(Oc1ccc([N+](=O)[O-])cc1)N1CCC(C(O)(c2ccc3c(c2)OCO3)c2ccc3c(c2)OCO3)CC1 [JZL184] (first compound 0.001 µM, partner dose 1 µM) showed a cell count of 80.5%.

For the compound `c1cc(-c2cnn3cc(-c4ccc(OCCN5CCCCC5)cc4)cnc23)ccn1` [Dorsomorphin] + O=C(Oc1ccc([N+](=O)[O-])cc1)N1CCC(C(O)(c2ccc3c(c2)OCO3)c2ccc3c(c2)OCO3)CC1 [JZL184] (first compound 0.4 µM, partner dose 1 µM), the cell count worked out at 81.5%.

Take `Oc1cc(-c2nc(-c3ccccc3)[nH]c2-c2ccncc2)ccc1Cl` + O=C(Oc1ccc([N+](=O)[O-])cc1)N1CCC(C(O)(c2ccc3c(c2)OCO3)c2ccc3c(c2)OCO3)CC1 [JZL184] (first compound 0.2 µM, partner dose 1 µM): the cell count turned out to be 96.6%.

For `Nc1ccn([C@@H]2O[C@H](CO)[C@@H](O)C2(F)F)c(=O)n1` [gemcitabine] + C/C(O)=C(\C#N)C(=O)Nc1cc(Br)ccc1Br [LFM-A13] (first compound 0.0004 µM, partner dose 2 µM), the cell count is 95.3%.

`CC(C)C[C@H](NC(=O)[C@H](Cc1ccccc1)NC(=O)c1cnccn1)B(O)O` [Bortezomib] + C/C(O)=C(\C#N)C(=O)Nc1cc(Br)ccc1Br [LFM-A13] (first compound 0.001 µM, partner dose 2 µM) returned a cell count of 102%.

The compound `CO[C@H]1C[C@@H]2CC[C@@H](C)[C@@](O)(O2)C(=O)C(=O)N2CCCC[C@H]2C(=O)O[C@H]([C@H](C)C[C@@H]2CC[C@@H](OCCO)[C@H](OC)C2)CC(=O)[C@H](C)/C=C(\C)[C@@H](O)[C@@H](OC)C(=O)[C@H](C)C[C@H](C)/C=C/C=C/C=C/1C` [everolimus] + Cc1cc(SCc2sc(-c3ccc(C(F)(F)F)c(F)c3)nc2C)ccc1OCC(=O)O [GW0742] (first compound 0.02 µM, partner dose 2 µM) gave a cell count of 99%.

Regarding `Nc1ccn([C@@H]2O[C@H](CO)[C@@H](O)C2(F)F)c(=O)n1` [gemcitabine] + O=C(Oc1ccc([N+](=O)[O-])cc1)N1CCC(C(O)(c2ccc3c(c2)OCO3)c2ccc3c(c2)OCO3)CC1 [JZL184] (first compound 0.0004 µM, partner dose 1 µM), the cell count came out at 82.8%.

In turn, `Cc1nc(Nc2ncc(C(=O)Nc3c(C)cccc3Cl)s2)cc(N2CCN(CCO)CC2)n1` [dasatanib] + Cc1cc(SCc2sc(-c3ccc(C(F)(F)F)c(F)c3)nc2C)ccc1OCC(=O)O [GW0742] (first compound 0.004 µM, partner dose 2 µM) showed a cell count of 83.7%.

Turning to `COCC[n+]1c2c(n(Cc3cnccn3)c1C)C(=O)c1ccccc1C2=O` + Cc1cc(SCc2sc(-c3ccc(C(F)(F)F)c(F)c3)nc2C)ccc1OCC(=O)O [GW0742] (first compound 0.0004 µM, partner dose 2 µM), the cell count was 72.9%.

`Cc1cc(Nc2cc(N3CCN(C)CC3)nc(Sc3ccc(NC(=O)C4CC4)cc3)n2)n[nH]1` [Tozasertib] + C/C(O)=C(\C#N)C(=O)Nc1cc(Br)ccc1Br [LFM-A13] (first compound 0.006 µM, partner dose 2 µM) showed a cell count of 92.6%.

Compound `COc1ccc(COc2ccc(Cc3cnc(N)nc3N)cc2OC)cc1` + C/C(O)=C(\C#N)C(=O)Nc1cc(Br)ccc1Br [LFM-A13] (first compound 1 µM, partner dose 2 µM) displayed a cell count of 98.7%.

`O=C(O)c1ccc2c(c1)nc(Nc1cccc(Cl)c1)c1ccncc12` + O=C(Oc1ccc([N+](=O)[O-])cc1)N1CCC(C(O)(c2ccc3c(c2)OCO3)c2ccc3c(c2)OCO3)CC1 [JZL184] (first compound 0.4 µM, partner dose 1 µM) yielded a cell count of 103%.

In the case of `COc1ccc(COc2ccc(Cc3cnc(N)nc3N)cc2OC)cc1` + Cc1cc(SCc2sc(-c3ccc(C(F)(F)F)c(F)c3)nc2C)ccc1OCC(=O)O [GW0742] (first compound 1 µM, partner dose 2 µM), the cell count is 91.2%.

These data come from the supplement of paper PMC4604168 (melanoma cell lines).
